In a collection of fitness landscapes (doi:10.1126/science.1257360) one finds enrichment ratio data, which are given here for 306 variants.

To fix the notation:
B1: PhoQ; a variant is named by its letters at X, in order, P23837 (parent)
chain: MKKLLRLFFPLSLRVRFLLATAAVVLVLSLAYGMVALIGYSVSFDKTTFRLLRGESNLFYTLAKWENNKLHVELPENIDKQSPTMTLIYDENGQLLWAQRDVPWLMKMIQPDWLKSNGFHEIEADVNDTSLLLSGDHSIQQQLQEVREDDDDAEMTHSVAVNVYPATSRMPKLTIVVVDTIPVELKSSYMVWSWFIYVLSANLLLVIPLLWVAAWWSLRPIEALAKEVRELEEHNRELLNPATTRELTSLVRNLNRLLKSERERYDKYRTTLTDLTHSLKTPLXXLQXXLRSLRSEKMSVSDAEPVMLEQISRISQQIGYYLHRASMRGGTLLSRELHPVAPLLDNLTSALNKVYQRKGVNISLDISPEISFVGEQNDFVEVMGNVLDNACKYCLEFVEISARQTDEHLYIVVEDDGPGIPLSKREVIFDRGQRVDTLRPGQGVGLAVAREITEQYEGKIVAGESMLGGARMEVIFGRQHSAPKDE

The other results are listed elsewhere or left out.

In the test the parent is B1. The test can be described thus: enrichment ratio after two sorts for PhoP signalling (ratio (wild type AVST 3.29)); higher = more functional. The note with it: with PhoP (E. coli).
Turning to TIYL, the enrichment ratio was 4.11.

As for LMRL, the enrichment ratio was not above 0.25. To HQKC belongs not above 0.25; to DFPV, not above 0.25.

As to YQMK, the enrichment ratio was not above 0.25. Turning to SYYS, the enrichment ratio stood at 0.264. To SVDL belongs 1.56; to MYSQ, not above 0.25. To VHET belongs not above 0.25. On to GSAE, for which the enrichment ratio is not above 0.25. For the variant NFCP, the enrichment ratio is not above 0.25.

On to PDTK, for which the enrichment ratio is not above 0.25. Then KKWL, with not above 0.25. To VDQC belongs not above 0.25.

For TSTA, the enrichment ratio was determined as 14.2.

As for RRNY, the enrichment ratio is not above 0.25. To NSQL belongs not above 0.25. For TFQW, the enrichment ratio is not above 0.25. Regarding SCRM, the enrichment ratio is not above 0.25. Then AFKG, with not above 0.25; and WVTM, with not above 0.25; and ESEC, with not above 0.25.

Regarding DGGK, the enrichment ratio is not above 0.25.

With QSKA, the enrichment ratio was not above 0.25. To HKVA belongs not above 0.25. To PCNT belongs not above 0.25; to YLID, not above 0.25. Then MEQP, with not above 0.25; and QDNC, with not above 0.25. Turning to TGAA, the enrichment ratio amounted to 7.8.

Take WRWP: the enrichment ratio was not above 0.25. To MHDN belongs not above 0.25. To GLCP belongs not above 0.25; to SRDA, not above 0.25; to PDSH, not above 0.25.

Take NHCP: the enrichment ratio was not above 0.25. Then NNWI, with not above 0.25; and HYMG, with not above 0.25. Then FGEC, with not above 0.25. Then PQYC, with not above 0.25; and DALF, with not above 0.25; and MFPF, with not above 0.25. As for WLDT, the enrichment ratio was not above 0.25. To QLRK belongs not above 0.25; to WFAT, not above 0.25.

Consider TPLI, for which the enrichment ratio is not above 0.25. Then DWRV, with not above 0.25; and PRHN, with not above 0.25. To IGEY belongs not above 0.25; to FGWT, not above 0.25. To WHWP belongs not above 0.25; to HLAQ, not above 0.25; to LFCY, not above 0.25. On to GKCL, for which the enrichment ratio is 10. As to YVNR, the enrichment ratio is not above 0.25.

Turning to IVYR, the enrichment ratio is not above 0.25. For WLIF, the enrichment ratio was not above 0.25.

For the variant VVWP, the enrichment ratio was not above 0.25.

On to HLSN, for which the enrichment ratio was not above 0.25. Then FYRN, with not above 0.25.

Take RTDC: the enrichment ratio was not above 0.25. Turning to IPNY, the enrichment ratio was not above 0.25. Then HRCN, with not above 0.25. To VLKI belongs not above 0.25; to GSDF, not above 0.25.

On to VSMW, for which the enrichment ratio was not above 0.25.

For DCRK, the enrichment ratio was not above 0.25. To YFWV belongs not above 0.25; to FERW, not above 0.25; to KLFP, not above 0.25. As for HFSR, the enrichment ratio worked out at 0.254. FWMN: the enrichment ratio was not above 0.25. To DEFM belongs not above 0.25; to GRGH, not above 0.25. To MCDM belongs not above 0.25. To RSYE belongs not above 0.25; to MQYH, not above 0.25.

As to PYYN, the enrichment ratio is not above 0.25. Then TWNC, with not above 0.25; and QIWQ, with 34.4. In the case of NAPH, the enrichment ratio was not above 0.25. Then TIGR, with 5.97. To PNTI belongs not above 0.25. Then DQVG, with not above 0.25. In the case of NCDC, the enrichment ratio was not above 0.25. For WFNY, the enrichment ratio is not above 0.25. To VKHH belongs not above 0.25; to AMRN, not above 0.25; to NLNH, not above 0.25.

Consider YTKA, for which the enrichment ratio was not above 0.25.

As for GQSF, the enrichment ratio is not above 0.25. Then VMLT, with not above 0.25. Then SNSV, with 11.2.

As to RVAW, the enrichment ratio is not above 0.25. Then YQPN, with not above 0.25. Then NFVF, with not above 0.25; and SHKK, with not above 0.25; and IDLP, with not above 0.25.

On to GSKF, for which the enrichment ratio is not above 0.25. With DFNH, the enrichment ratio was not above 0.25. To IDPN belongs not above 0.25; to QRNY, not above 0.25; to HSAW, not above 0.25. Then VAPW, with not above 0.25; and VNLM, with 22.6; and YEQL, with not above 0.25.

For NIRA, the enrichment ratio was not above 0.25. To GPCI belongs not above 0.25; to IPTI, not above 0.25; to RRDL, not above 0.25. To VLDS belongs not above 0.25. To NHVY belongs not above 0.25; to FGDG, not above 0.25. Take LSNF: the enrichment ratio was not above 0.25. Then PHEF, with not above 0.25. Then NIYC, with not above 0.25; and ENKN, with not above 0.25. To EDEF belongs not above 0.25.

In the case of WCYP, the enrichment ratio was not above 0.25. As for RTSQ, the enrichment ratio is not above 0.25. Then NCQL, with not above 0.25; and PDGR, with not above 0.25; and FDAS, with not above 0.25. With HYFQ, the enrichment ratio was not above 0.25. Then NYRR, with not above 0.25; and SALT, with 11.2. As for WKNN, the enrichment ratio was not above 0.25. Take KKCQ: the enrichment ratio was not above 0.25.

As to MSKN, the enrichment ratio was not above 0.25. For the variant EKHG, the enrichment ratio was not above 0.25. To MRFA belongs not above 0.25; to KCDF, not above 0.25; to YTWE, not above 0.25. Then SEVR, with 12.1; and TPGW, with not above 0.25. Then LLAS, with 0.337; and MNES, with not above 0.25. Consider GNLR, for which the enrichment ratio was not above 0.25. To GYFS belongs not above 0.25; to SFFL, not above 0.25; to APCD, not above 0.25. Turning to QEYN, the enrichment ratio is not above 0.25.

For DCMH, the enrichment ratio is not above 0.25. Then YQYR, with not above 0.25. To KTWV belongs not above 0.25; to VDGK, not above 0.25. To VCGH belongs not above 0.25. In the case of IVLA, the enrichment ratio is not above 0.25.

With GWTP, the enrichment ratio was not above 0.25. Consider MDDM, for which the enrichment ratio is not above 0.25. To IMGW belongs not above 0.25. To NMFK belongs not above 0.25; to DSHP, not above 0.25; to DWHA, not above 0.25.

Regarding RNHN, the enrichment ratio was not above 0.25. To QFLD belongs not above 0.25; to DLEH, not above 0.25. RMYC: the enrichment ratio was not above 0.25. Then GVMP, with not above 0.25. Turning to ECEP, the enrichment ratio was 15.1. Then FSTR, with not above 0.25; and LQWS, with not above 0.25; and HSNL, with not above 0.25.

As for APRR, the enrichment ratio was not above 0.25. Then VLLY, with not above 0.25; and SSCR, with not above 0.25; and IHDG, with not above 0.25. Then FICH, with not above 0.25. To AWTL belongs not above 0.25. As to KLKD, the enrichment ratio was not above 0.25. Then QVPL, with not above 0.25; and GVDF, with not above 0.25. Then SCVC, with 2.27; and QGFQ, with 13.4; and FHEE, with not above 0.25. Then HGFG, with not above 0.25; and VIGH, with not above 0.25; and EQMV, with not above 0.25. As to AAHF, the enrichment ratio was not above 0.25. To PSTI belongs not above 0.25; to ILGM, not above 0.25. RKLV: the enrichment ratio is not above 0.25. Then FMKN, with not above 0.25.

Take LSHF: the enrichment ratio is not above 0.25. To WNQW belongs not above 0.25; to EHRH, not above 0.25. Then DIMF, with not above 0.25. For the variant GDVE, the enrichment ratio is not above 0.25. Then SQDR, with not above 0.25; and EPRL, with not above 0.25; and YNNV, with not above 0.25. MLLT: the enrichment ratio was not above 0.25. Then MNPL, with not above 0.25; and KHEA, with not above 0.25; and YHDV, with not above 0.25. Then RMTN, with not above 0.25. Then IANG, with not above 0.25; and SGQY, with 4; and VRKV, with not above 0.25. Take VPSL: the enrichment ratio is not above 0.25. On to TEWG, for which the enrichment ratio is 3.3. Regarding HVGL, the enrichment ratio was not above 0.25. As for MVRD, the enrichment ratio was not above 0.25. Then VYPM, with not above 0.25; and MHNW, with not above 0.25; and IWCA, with not above 0.25. With FQSR, the enrichment ratio is not above 0.25.

For LKAC, the enrichment ratio was not above 0.25.

As for QTEP, the enrichment ratio is not above 0.25.

For the variant DPFM, the enrichment ratio is not above 0.25. As to NNIG, the enrichment ratio was not above 0.25. Take FKNS: the enrichment ratio was not above 0.25.

In the case of FHYT, the enrichment ratio is not above 0.25.

Consider AQLI, for which the enrichment ratio was 7.44. On to HLAR, for which the enrichment ratio is not above 0.25. Then DTPC, with not above 0.25.

Consider WQAF, for which the enrichment ratio is not above 0.25. Then PFIR, with not above 0.25; and YTFK, with not above 0.25; and QKTP, with not above 0.25. Then RNSQ, with not above 0.25; and KLLL, with not above 0.25. As for IQPM, the enrichment ratio is not above 0.25.

On to AYLT, for which the enrichment ratio was found to be 0.401. Then MEQH, with not above 0.25; and IAPP, with not above 0.25. Take MPFD: the enrichment ratio was not above 0.25. To DWTV belongs not above 0.25. Regarding TWQV, the enrichment ratio is not above 0.25.

For KNCQ, the enrichment ratio is not above 0.25. To VKNL belongs not above 0.25; to ATFV, not above 0.25; to PNID, not above 0.25. To LYLG belongs not above 0.25; to HHIL, not above 0.25.

Consider PVWP, for which the enrichment ratio was not above 0.25. Then MYGM, with not above 0.25.

In the case of TGWE, the enrichment ratio is not above 0.25. Then IDSS, with not above 0.25; and RNAV, with not above 0.25; and FEFR, with not above 0.25.

As for HTIS, the enrichment ratio was not above 0.25. Then ERDW, with not above 0.25; and NVKC, with not above 0.25.

For the variant DGRC, the enrichment ratio was not above 0.25. To VTFD belongs not above 0.25. Then KHMP, with not above 0.25; and IDPA, with not above 0.25; and IVVS, with not above 0.25. To FRVK belongs not above 0.25; to KALR, not above 0.25; to HAYK, not above 0.25. For HGYL, the enrichment ratio came out at 2.16.

With QIWH, the enrichment ratio is not above 0.25.

For the variant KYIG, the enrichment ratio is not above 0.25. With ACHL, the enrichment ratio is not above 0.25.

Take NIPC: the enrichment ratio is not above 0.25. Then QGPK, with not above 0.25; and PTPS, with not above 0.25; and NEYN, with not above 0.25. Then WTTR, with not above 0.25.

As for WFSG, the enrichment ratio was not above 0.25.

For the variant NKMV, the enrichment ratio is not above 0.25. To FNTI belongs not above 0.25; to KNIP, not above 0.25; to VNME, not above 0.25.

With DSIM, the enrichment ratio is not above 0.25. Then VHSQ, with not above 0.25. To SHWW belongs not above 0.25. Then FNHS, with not above 0.25; and GHAP, with not above 0.25; and FAWT, with not above 0.25. Take SSRC: the enrichment ratio was not above 0.25. Then VGSY, with not above 0.25; and HCFR, with not above 0.25.

Consider EVTG, for which the enrichment ratio is not above 0.25. Then ADPI, with not above 0.25; and VREY, with not above 0.25; and LYRA, with not above 0.25. Then RNGV, with not above 0.25; and RHRA, with not above 0.25. To WGNP belongs not above 0.25; to PSYE, not above 0.25; to MHNY, not above 0.25.

In the case of GNSR, the enrichment ratio is not above 0.25.

Turning to MGIY, the enrichment ratio is not above 0.25. To KKTP belongs not above 0.25. To AYTR belongs not above 0.25; to KRKL, not above 0.25. Then DYMS, with not above 0.25; and PHLP, with not above 0.25.

On to TMRM, for which the enrichment ratio was not above 0.25. Then NCRR, with not above 0.25. Then NPYL, with not above 0.25. On to VVMT, for which the enrichment ratio was not above 0.25. Take VAKT: the enrichment ratio is not above 0.25.

As for DANW, the enrichment ratio is not above 0.25. To YTWG belongs not above 0.25; to YQVG, not above 0.25. Then GKKR, with not above 0.25. As to EPSK, the enrichment ratio was not above 0.25. Then TRIG, with not above 0.25; and SPET, with not above 0.25. To NWGM belongs not above 0.25; to SQCP, not above 0.25; to MKQW, not above 0.25.
